# Laboratory results from the supplement of paper PMC8728848.
# Some of the results follow.
# B1: Epa1-NP-mutant-E227G (Candida glabrata), Q6VBJ0 (protein)
# chain: MILNPALFLNKCVCIYTTLILLLLTNGGYATSSNDISLASKDPTTFPLGCSPDITTPKKGLSMELYSYDFRKKGSYPCWDAAYLDPNYPRTGYKSHRLLAKVDGVTGNINFYYHATKGCTPQLGHLPASYNYPKPLTMTNFTMLLYGYFRPKVTGFHTFTISADDLLFVNFGAGNAFDCCRRDSSADHFGNYQAYAIWGSKTAKDELTVHLDAGVYYPIRLFYNNRGYDGALSFTFKTESNENTVSDFSEYFFSLDDTEEGCPGLISYDSSCASVKTSKIIGIDYHTETPNENLVPITKTIYHLGIPCTGTTTTPLCGSGFYDPLANKCVTINTSSTSSVTKTTSHTTSKEVSFHSSISSQKTLIPKSIPSPYGPIKSQSIPTEMETSSEISSSEYAFSDVISTPSHSPYTKKHSSLNSSSYTSTVIHSLTSYSISQGIFSTSLSEQNITSKSSTDKFSTATSMSNNITQSSIIISQFSTNNENYTTTSMHTSSDKISTETLNNSISTTTSILFSNSSTILKNNTTIISSDKDTHYHPVNPTIVCSTNKTEIICASITQPSISNSNNHWSSSVLKFNSTTVRSTLPSSAGSNETSINVPFSSSTESNTSTSSTSTSNSKMVRSTLPSSAGSNETSISVPFSSSTESNTSTSSTSTSNSKMVRSTLPSSAGSNETSINVPFSSSTESNTSTSSTSTSNSKTVRSTPFSSAGIIMTSLSQRNNKSASSYASSNSKCYNTADSCRKVHSTPSYLLTSSYTSEGVDYDCSLVSTKLKINDTNCVNNKHTTKSCLKTSVTTTIPTLEIKTARKSSSNTIGLHSYPTSSPNKSISSAPIIGYISSFKTIKTASPSYQTSDLTTITTITSLNNPGSTAVENTHESNDKSRKTSSNDISSKHSVIKETKDAVESSNKSHQTNTLKCSSIIIASSSHNSYESLGGTTLTLTLSKVYSPQNNDTLPFLEISEVNPSRTVLPESSKMMQYLTSTEERNKTARNTIATNIVSISTFHFEGEGNAIRMGYTQLLLMLIGIIVMNIGT
# Experiments:
# Test in all cases: glycan array binding signal (z-score within array); higher = stronger binding
# Settings in all cases: glycan notation: IUPAC condensed, linker removed; mutation: E227G
# [1] = molecular target: Fuc(a1-2)[GalNAc(b1-3)]Gal
# Summary of the method: (§1)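 The Consortium for Functional Glycomics database supplied 3228 glycan arrays, of which those lacking an available protein sequence were dropped. The binding signal, a within-array Z-score, was averaged across arrays of the same protein sequence and across linkers. Negative scores can be read as non-binding.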
# Fuc(a1-3)GlcNAc = molecular target: Fuc(a1-3)GlcNAc
# Summary of the method: as §1
# [2] = molecular target: Fuc(a1-3)[Gal(b1-4)]Glc6S
# Summary of the method: as §1
# [3] = molecular target: Fuc(a1-3)[Gal(b1-4)]GlcNAc
# Summary of the method: as §1
# [4] = molecular target: Fuc(a1-3)[Gal(b1-4)]GlcNAc(b1-2)Man
# Summary of the method: as §1
# [5] = molecular target: Fuc(a1-3)[Gal(b1-4)]GlcNAc(b1-2)Man(a1-3)[Fuc(a1-3)[Gal(b1-4)]GlcNAc(b1-2)Man(a1-6)]Man(b1-4)GlcNAc(b1-4)GlcNAc
# Summary of the method: as §1
# [6] = molecular target: Fuc(a1-3)[Gal(b1-4)]GlcNAc(b1-2)Man(a1-3)[Fuc(a1-3)[Gal(b1-4)]GlcNAc(b1-2)Man(a1-6)]Man(b1-4)GlcNAc(b1-4)[Fuc(a1-6)]GlcNAc
# Summary of the method: as §1
# [7] = molecular target: Fuc(a1-3)[Gal(b1-4)]GlcNAc(b1-3)Gal(b1-3)[Fuc(a1-4)]GlcNAc
# Summary of the method: as §1
# [8] = molecular target: Fuc(a1-3)[Gal(b1-4)]GlcNAc(b1-3)Gal(b1-4)[Fuc(a1-3)]GlcNAc
# Summary of the method: as §1
# [9] = molecular target: Fuc(a1-3)[Gal(b1-4)]GlcNAc(b1-3)Gal(b1-4)[Fuc(a1-3)]GlcNAc(b1-3)Gal(b1-4)[Fuc(a1-3)]GlcNAc
# Summary of the method: as §1
# [10] = molecular target: Fuc(a1-3)[Gal(b1-4)]GlcNAc(b1-3)GalNAc
# Summary of the method: as §1
# [11] = molecular target: Fuc(a1-3)[Gal(b1-4)]GlcNAc(b1-6)GalNAc
# Summary of the method: as §1
# [12] = molecular target: Fuc(a1-3)[Gal(b1-4)]GlcNAc(b1-6)[Gal(b1-3)GlcNAc(b1-3)]Gal(b1-4)Glc
# Summary of the method: as §1
# [13] = molecular target: Fuc(a1-3)[Gal(b1-4)]GlcNAc6S
# Summary of the method: as §1
# [14] = molecular target: Fuc(a1-3)[Gal3S(b1-4)]Glc
# Summary of the method: as §1
# [15] = molecular target: Fuc(a1-3)[Gal3S(b1-4)]GlcNAc
# Summary of the method: as §1
# [16] = molecular target: Fuc(a1-3)[Gal3S(b1-4)]GlcNAc6S
# Summary of the method: as §1
# [17] = molecular target: Fuc(a1-3)[GalNAc(b1-4)]GlcNAc
# Summary of the method: as §1
# [18] = molecular target: Fuc(a1-3)[GalNAc(b1-4)]GlcNAc6S
# Summary of the method: as §1
# Fuc(a1-4)GlcNAc = molecular target: Fuc(a1-4)GlcNAc
# Summary of the method: as §1
# Fuc(b1-3)GlcNAc = molecular target: Fuc(b1-3)GlcNAc
# Summary of the method: as §1
# Gal(a1-2)Gal = molecular target: Gal(a1-2)Gal
# Summary of the method: as §1
# Gal(a1-3)Gal = molecular target: Gal(a1-3)Gal
# Summary of the method: as §1
# Gal(a1-3)Gal(b1-3)GlcNAc = molecular target: Gal(a1-3)Gal(b1-3)GlcNAc
# Summary of the method: as §1
# [19] = molecular target: Gal(a1-3)Gal(b1-3)GlcNAc(b1-2)Man
# Summary of the method: as §1
# [20] = molecular target: Gal(a1-3)Gal(b1-3)GlcNAc(b1-2)Man(a1-3)[Gal(a1-3)Gal(b1-3)GlcNAc(b1-2)Man(a1-6)]Man(b1-4)GlcNAc(b1-4)GlcNAc
# Summary of the method: as §1
# [21] = molecular target: Gal(a1-3)Gal(b1-3)GlcNAc(b1-3)GalNAc
# Summary of the method: as §1
# [22] = molecular target: Gal(a1-3)Gal(b1-3)GlcNAc(b1-6)GalNAc
# Summary of the method: as §1
# [23] = molecular target: Gal(a1-3)Gal(b1-3)[Fuc(a1-4)]GlcNAc(b1-2)Man(a1-3)[Gal(a1-3)Gal(b1-3)[Fuc(a1-4)]GlcNAc(b1-2)Man(a1-6)]Man(b1-4)GlcNAc(b1-4)GlcNAc
# Summary of the method: as §1
# Gal(a1-3)Gal(b1-4)Glc = molecular target: Gal(a1-3)Gal(b1-4)Glc
# Summary of the method: as §1
binder,measurement,setting,value
B1,glycan array binding signal (z-score),[1],-0.22
same,glycan array binding signal (z-score),Fuc(a1-3)GlcNAc,-0.077
same,glycan array binding signal (z-score),[2],-0.073
same,glycan array binding signal (z-score),[3],-0.217
same,glycan array binding signal (z-score),[4],-0.202
same,glycan array binding signal (z-score),[5],-0.137
same,glycan array binding signal (z-score),[6],-0.005
same,glycan array binding signal (z-score),[7],-0.062
same,glycan array binding signal (z-score),[8],-0.147
same,glycan array binding signal (z-score),[9],-0.246
same,glycan array binding signal (z-score),[10],-0.025
same,glycan array binding signal (z-score),[11],-0.301
same,glycan array binding signal (z-score),[12],-0.126
same,glycan array binding signal (z-score),[13],0.185
same,glycan array binding signal (z-score),[14],-0.16
same,glycan array binding signal (z-score),[15],-0.159
same,glycan array binding signal (z-score),[16],0.024
same,glycan array binding signal (z-score),[17],-0.131
same,glycan array binding signal (z-score),[18],-0.197
same,glycan array binding signal (z-score),Fuc(a1-4)GlcNAc,-0.279
same,glycan array binding signal (z-score),Fuc(b1-3)GlcNAc,-0.119
same,glycan array binding signal (z-score),Gal(a1-2)Gal,-0.274
same,glycan array binding signal (z-score),Gal(a1-3)Gal,-0.054
same,glycan array binding signal (z-score),Gal(a1-3)Gal(b1-3)GlcNAc,-0.236
same,glycan array binding signal (z-score),[19],-0.184
same,glycan array binding signal (z-score),[20],0.258
same,glycan array binding signal (z-score),[21],-0.05
same,glycan array binding signal (z-score),[22],-0.046
same,glycan array binding signal (z-score),[23],0.128
same,glycan array binding signal (z-score),Gal(a1-3)Gal(b1-4)Glc,-0.127
